Results are given in words; binding and its absence hold for the method and conditions named. Binding seen in cells or lysates may run through a third protein.
Molecular target: T1, HERC6 (HECT domain- and RCC1-like domain-containing protein 6), endogenous, mouse peritoneal macrophages (mouse (endogenous in peritoneal macrophages)) (UniProt F2Z461)
T1 sequence: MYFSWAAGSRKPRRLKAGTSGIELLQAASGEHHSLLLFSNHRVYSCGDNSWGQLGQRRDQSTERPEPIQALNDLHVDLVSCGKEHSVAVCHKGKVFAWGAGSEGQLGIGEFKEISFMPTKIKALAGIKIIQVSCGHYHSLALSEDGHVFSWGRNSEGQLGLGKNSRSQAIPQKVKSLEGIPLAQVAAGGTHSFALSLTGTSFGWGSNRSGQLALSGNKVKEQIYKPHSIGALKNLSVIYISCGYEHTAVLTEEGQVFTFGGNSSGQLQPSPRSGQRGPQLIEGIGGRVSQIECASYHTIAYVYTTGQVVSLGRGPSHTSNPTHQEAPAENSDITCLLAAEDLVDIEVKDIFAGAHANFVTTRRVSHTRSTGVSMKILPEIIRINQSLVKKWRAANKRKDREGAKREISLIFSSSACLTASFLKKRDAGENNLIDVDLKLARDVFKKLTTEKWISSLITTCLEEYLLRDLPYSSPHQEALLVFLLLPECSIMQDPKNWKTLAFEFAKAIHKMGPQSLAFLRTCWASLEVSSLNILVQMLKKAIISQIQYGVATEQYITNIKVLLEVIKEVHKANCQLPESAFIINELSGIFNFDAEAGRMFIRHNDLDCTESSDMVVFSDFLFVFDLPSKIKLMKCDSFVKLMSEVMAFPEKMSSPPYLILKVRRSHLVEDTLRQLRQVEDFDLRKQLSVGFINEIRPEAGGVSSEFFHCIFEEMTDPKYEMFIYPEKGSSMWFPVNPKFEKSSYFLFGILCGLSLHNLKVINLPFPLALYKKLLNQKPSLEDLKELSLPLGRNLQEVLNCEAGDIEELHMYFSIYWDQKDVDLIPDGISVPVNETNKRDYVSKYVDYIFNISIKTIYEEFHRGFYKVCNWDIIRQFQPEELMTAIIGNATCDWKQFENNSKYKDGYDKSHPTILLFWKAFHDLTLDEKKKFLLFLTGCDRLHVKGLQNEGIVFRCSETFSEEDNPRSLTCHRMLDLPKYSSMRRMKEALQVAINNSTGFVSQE
Assay: co-IP; endogenous proteins in mouse peritoneal macrophages, LPS-stimulated or LPS-primed and ATP-activated; IP buffer 1.0% NP-40, 50 mM Tris-HCl pH 7.4, 50 mM EDTA, 150 mM NaCl

B1: CASP1, endogenous, mouse peritoneal macrophages (enzyme, UniProt P29452 1-402)
chain: MADKILRAKRKQFINSVSIGTINGLLDELLEKRVLNQEEMDKIKLANITAMDKARDLCDHVSKKGPQASQIFITYICNEDCYLAGILELQSAPSAETFVATEDSKGGHPSSSETKEEQNKEDGTFPGLTGTLKFCPLEKAQKLWKENPSEIYPIMNTTTRTRLALIICNTEFQHLSPRVGAQVDLREMKLLLEDLGYTVKVKENLTALEMVKEVKEFAACPEHKTSDSTFLVFMSHGIQEGICGTTYSNEVSDILKVDTIFQMMNTLKCPSLKDKPKVIIIQACRGEKQGVVLLKDSVRDSEEDFLTDAIFEDDGIKKAHIEKDFIAFCSSTPDNVSWRHPVRGSLFIESLIKHMKEYAWSCDLEDIFRKVRFSFEQPEFRLQMPTADRVTLTKRFYLFPGH
  binding: no binding

From article PMC10575725
